Measured values taken from article PMC7708041.
Results are given in words; binding and its absence hold for the method and conditions named. In cells and extracts the contact can be indirect. Some binding calls cover weakened binding; strength is not graded here. Where a sequence is shown, tags or fusion partners need not be part of it.

Key:
[1] = target: T1, tof1 627 truncation protein, C terminally TAP tagged (S. cerevisiae) (UniProt P53840); test: co-IP; TAP-tagged Tof1 proteins captured on IgG Sepharose from cleared lysates of exponentially growing yeast; 2 h, 4°C; lysis buffer 50 mM HEPES pH 7.5, 300 mM KCl, 5 mM EDTA, 10 mM MgOAc, 10% glycerol, 0.01% Triton X-100; eluted in 0.2 M glycine pH 3.0; western blot with anti-Csm3
T1 sequence: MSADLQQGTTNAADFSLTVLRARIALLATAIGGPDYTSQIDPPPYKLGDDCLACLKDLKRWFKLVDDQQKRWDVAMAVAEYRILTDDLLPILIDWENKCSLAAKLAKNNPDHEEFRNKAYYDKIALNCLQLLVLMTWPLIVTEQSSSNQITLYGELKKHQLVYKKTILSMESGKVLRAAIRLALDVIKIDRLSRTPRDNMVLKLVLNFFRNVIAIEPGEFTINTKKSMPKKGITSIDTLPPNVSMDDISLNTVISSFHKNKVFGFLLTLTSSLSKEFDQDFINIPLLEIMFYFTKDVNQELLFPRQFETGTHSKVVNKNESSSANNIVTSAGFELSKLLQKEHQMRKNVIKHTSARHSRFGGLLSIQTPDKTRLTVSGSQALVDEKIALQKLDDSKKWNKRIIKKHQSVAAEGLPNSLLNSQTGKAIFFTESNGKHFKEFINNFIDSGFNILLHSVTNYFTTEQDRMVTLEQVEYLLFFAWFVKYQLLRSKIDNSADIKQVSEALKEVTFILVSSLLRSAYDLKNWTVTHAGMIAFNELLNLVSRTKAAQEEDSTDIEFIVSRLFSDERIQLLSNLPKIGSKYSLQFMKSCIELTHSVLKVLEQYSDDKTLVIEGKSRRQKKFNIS

[2] = target: T2, tof1 997 truncation protein, C terminally TAP tagged (S. cerevisiae) (UniProt P53840); test: as above
T2 sequence: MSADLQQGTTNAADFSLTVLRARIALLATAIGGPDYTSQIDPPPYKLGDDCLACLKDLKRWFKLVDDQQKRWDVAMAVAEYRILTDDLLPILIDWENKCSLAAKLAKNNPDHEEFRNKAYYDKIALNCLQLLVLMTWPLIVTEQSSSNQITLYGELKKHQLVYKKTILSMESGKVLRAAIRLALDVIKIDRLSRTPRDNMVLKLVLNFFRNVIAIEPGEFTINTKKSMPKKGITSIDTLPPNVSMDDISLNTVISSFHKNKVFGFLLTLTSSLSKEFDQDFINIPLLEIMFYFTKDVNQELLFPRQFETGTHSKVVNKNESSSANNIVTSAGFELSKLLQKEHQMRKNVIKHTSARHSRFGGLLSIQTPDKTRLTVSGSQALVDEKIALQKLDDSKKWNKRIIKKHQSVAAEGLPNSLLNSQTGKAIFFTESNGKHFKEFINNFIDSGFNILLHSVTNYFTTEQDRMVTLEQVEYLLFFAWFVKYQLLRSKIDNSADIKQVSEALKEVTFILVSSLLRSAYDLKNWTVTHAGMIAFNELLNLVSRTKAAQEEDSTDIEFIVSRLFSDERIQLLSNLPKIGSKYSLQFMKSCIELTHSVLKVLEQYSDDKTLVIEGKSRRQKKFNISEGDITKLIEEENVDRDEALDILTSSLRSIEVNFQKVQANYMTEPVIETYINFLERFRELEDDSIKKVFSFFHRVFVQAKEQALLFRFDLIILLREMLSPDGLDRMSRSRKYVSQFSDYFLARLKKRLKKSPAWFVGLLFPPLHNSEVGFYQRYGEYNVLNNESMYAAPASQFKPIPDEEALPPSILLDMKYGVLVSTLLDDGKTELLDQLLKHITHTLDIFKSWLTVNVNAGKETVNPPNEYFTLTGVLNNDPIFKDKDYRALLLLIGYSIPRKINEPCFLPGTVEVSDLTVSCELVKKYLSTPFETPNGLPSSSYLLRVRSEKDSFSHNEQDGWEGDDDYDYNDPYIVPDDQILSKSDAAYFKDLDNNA

- binding [1]: no binding
- binding [2]: binds
B1: Csm3 (protein, UniProt Q04659 1-317)
chain: MDQDFDSLLLGFNDSDSVQKDPTVPNGLDGSVVDPTIADPTAITARKRRPQVKLTAEKLLSDKGLPYVLKNAHKRIRISSKKNSYDNLSNIIQFYQLWAHELFPKAKFKDFMKICQTVGKTDPVLREYRVSLFRDEMGMSFDVGTRETGQDLERQSPMVEEHVTSAEERPIVADSFAQDKRNVNNVDYDNDEDDDIYHLSYRNRRGRVLDERGNNETVLNNVVPPKEDLDALLKTFRVQGPVGLEENEKKLLLGWLDAHRKMEKGSMTEEDVQLIQSLEEWEMNDIEGQHTHYDLLPGGDEFGVDQDELDAMKEMGF
